The values below come from PMC4336329 (PLoS ONE, 2015).

In all, about 310,000 compounds went through this assay and about 2,200 (0.71%) showed an effect of 50% or more. The effect is printed as a negative number. This is one part of the list.

Sequence of human ether-à-go-go-related gene (hERG) potassium channel (Q12809 whole entry, looked up): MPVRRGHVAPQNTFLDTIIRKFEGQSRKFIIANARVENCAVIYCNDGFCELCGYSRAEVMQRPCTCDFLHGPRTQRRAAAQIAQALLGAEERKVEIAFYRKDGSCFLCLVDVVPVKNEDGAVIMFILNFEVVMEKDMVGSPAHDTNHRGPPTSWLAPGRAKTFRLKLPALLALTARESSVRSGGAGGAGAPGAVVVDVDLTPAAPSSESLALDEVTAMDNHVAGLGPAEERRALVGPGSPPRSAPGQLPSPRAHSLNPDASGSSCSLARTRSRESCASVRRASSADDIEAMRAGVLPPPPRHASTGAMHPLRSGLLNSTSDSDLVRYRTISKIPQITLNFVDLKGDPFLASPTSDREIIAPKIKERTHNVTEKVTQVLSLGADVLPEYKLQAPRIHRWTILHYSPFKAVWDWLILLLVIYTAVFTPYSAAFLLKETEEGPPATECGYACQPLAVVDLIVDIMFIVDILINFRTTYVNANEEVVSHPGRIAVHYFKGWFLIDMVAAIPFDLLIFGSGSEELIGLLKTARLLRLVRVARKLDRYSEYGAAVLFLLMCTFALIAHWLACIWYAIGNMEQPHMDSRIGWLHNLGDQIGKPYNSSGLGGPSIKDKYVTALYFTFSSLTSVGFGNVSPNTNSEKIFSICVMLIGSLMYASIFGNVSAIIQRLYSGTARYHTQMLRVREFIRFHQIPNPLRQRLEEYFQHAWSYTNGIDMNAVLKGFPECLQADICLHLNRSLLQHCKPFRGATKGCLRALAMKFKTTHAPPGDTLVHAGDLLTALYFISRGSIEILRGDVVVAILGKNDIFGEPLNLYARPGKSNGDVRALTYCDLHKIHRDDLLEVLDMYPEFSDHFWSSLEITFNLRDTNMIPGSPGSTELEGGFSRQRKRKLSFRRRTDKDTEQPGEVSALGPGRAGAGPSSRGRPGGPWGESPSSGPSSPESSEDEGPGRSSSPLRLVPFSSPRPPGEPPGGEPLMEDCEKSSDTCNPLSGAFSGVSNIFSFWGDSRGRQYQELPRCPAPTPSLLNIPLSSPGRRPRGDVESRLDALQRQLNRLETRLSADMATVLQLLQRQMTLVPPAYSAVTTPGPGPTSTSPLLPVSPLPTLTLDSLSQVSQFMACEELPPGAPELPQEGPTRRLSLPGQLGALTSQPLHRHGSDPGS

The assay concerns the target human ether-à-go-go-related gene (hERG) potassium channel (human, UniProt Q12809). Put plainly: primary screen, population patch clamp on CHO cells stably expressing hERG.
Turning to `CC(C)(C)C(=O)c1sc2nc(-c3cccs3)cc(C(F)(F)F)c2c1N`, the “hERG current change (%, negative = inhibition) at 1uM” value stood at 7.52%.

Consider `Cc1ccc(Cl)cc1NC(=O)CN1C(=O)NC2(CCCCCC2)C1=O`, for which the “hERG current change (%, negative = inhibition) at 1uM” value stood at 0.826%.

Turning to `Cc1ccc(Cn2ncc3c(N4CCN(c5ccccc5C)CC4)ncnc32)cc1`, the “hERG current change (%, negative = inhibition) at 1uM” value was determined as 9.24%.

On to `Cc1ccc(C(=O)Oc2ccc3c(c2)ncn3C)cc1`, for which the “hERG current change (%, negative = inhibition) at 1uM” value is recorded as 5.74%.

Regarding `COc1ccc(C[C@H]2CN3C(=NC[C@@H]3Cc3ccc(O)cc3)N2CCNC(=O)c2ccc(C)c(Br)c2)cc1`, the “hERG current change (%, negative = inhibition) at 1uM” value was -18.4%.

With `CC1CC(C)CN(C(=O)CCC(=O)Nc2nnc(C3CCCCC3)s2)C1` (stereo not drawn), the “hERG current change (%, negative = inhibition) at 1uM” value is 18.6%.

With `CCSc1ccc([C@@H]2[C@@H]3C(=O)N(C)C(=O)[C@@H]3[C@]3(C(=O)OC)CCCCN23)cc1.O=C(O)C(F)(F)F`, the “hERG current change (%, negative = inhibition) at 1uM” value came to 11.9%.

Regarding `CCOC(=O)c1c(-c2ccccc2)csc1NC(=O)/C(C#N)=C/c1ccc(O)c(OC)c1`, the “hERG current change (%, negative = inhibition) at 1uM” value is given as 3.15%.

Regarding `COc1cc(/C=C2\SC(N)=NC2=O)cc(OC)c1`, the “hERG current change (%, negative = inhibition) at 1uM” value is recorded as 2.09%.

For the compound `CCn1c(COc2ccc(C)cc2)nnc1SCC(=O)NCc1ccco1`, the “hERG current change (%, negative = inhibition) at 1uM” value worked out at 0.55%.

As to `COc1cccc(C(=O)Cn2c(=O)n(CC3CCCO3)c(=O)c3ccccc32)c1` (stereo not drawn), the “hERG current change (%, negative = inhibition) at 1uM” value came to 8.58%.

In the case of `Cl.N=c1sccn1CC(=O)Nc1ccc(SC(F)F)cc1`, the “hERG current change (%, negative = inhibition) at 1uM” value is listed as -29%.

As to `COc1ccc(CNC(=O)c2c(N)n(CCCN3CCOCC3)c3nc4ccccc4nc23)cc1`, the “hERG current change (%, negative = inhibition) at 1uM” value came to 2.88%.

In the case of `Cc1ccc(CNC(=O)CN(c2cccc([N+](=O)[O-])c2)S(C)(=O)=O)cc1`, the “hERG current change (%, negative = inhibition) at 1uM” value came to 7.48%.

Regarding `O=C(O)c1cc2c(ccc3ccccc32)[nH]1`, the “hERG current change (%, negative = inhibition) at 1uM” value came to 13%.

For `COc1ccc(NC(=O)O/N=C/c2ccncc2)cc1`, the “hERG current change (%, negative = inhibition) at 1uM” value worked out at 19%.

Regarding `O=C(Cc1cccs1)Nc1cccc([N+](=O)[O-])c1`, the “hERG current change (%, negative = inhibition) at 1uM” value is -5.24%.

As for `CCOc1ccc2nc(NCCCNS(=O)(=O)c3ccc(C)cc3)c(C#N)cc2c1`, the “hERG current change (%, negative = inhibition) at 1uM” value was found to be 4.04%.

In the case of `CS(=O)(=O)Nc1ccccc1C(=O)c1ccccc1`, the “hERG current change (%, negative = inhibition) at 1uM” value was determined as 6.47%.

Turning to `Cn1c(N)c(C(=O)COC(=O)C2(c3ccc(F)cc3)CCCC2)c(=O)n(C)c1=O`, the “hERG current change (%, negative = inhibition) at 1uM” value stood at 17%.

With `Cc1ccc(-c2nn(CCC(=O)NN3CCOCC3)c(=O)c3ccccc23)cc1`, the “hERG current change (%, negative = inhibition) at 1uM” value is 6.21%.

On to `CCN(C(=O)COC(=O)CNC(=O)c1ccc(F)cc1)C1CCS(=O)(=O)C1` (stereo not drawn), for which the “hERG current change (%, negative = inhibition) at 1uM” value came out at 9.62%.

`CCCOc1ccc(N2C(=O)CC(NCC(=O)OCC)C2=O)cc1` (stereo not drawn): the “hERG current change (%, negative = inhibition) at 1uM” value was found to be 12.3%.

As for `CCOc1ccc(S(=O)(=O)N2CCCCC2)cc1NC(=O)CCc1ccc(OC)cc1`, the “hERG current change (%, negative = inhibition) at 1uM” value came to 12.7%.
